Experimental data from the supplement of paper PMC4967469.
Lines with a small IC50 respond at low doses; a limit (>, <) means that the fit lies beyond the doses tested. AUC is the area under the same curve over the 256-fold range up to the top dose, as a fraction; it is 1 without any effect and falls as sensitivity rises. An inferred top dose was derived from the fitted curves, not read from the paper.

Compound: COc1ncc(-c2ccc3nccc(-c4ccnnc4)c3c2)cc1NS(=O)(=O)c1ccc(F)cc1F [GSK2126458]
Assay: Viability of human cancer cell lines after 72 h of drug (GDSC screen)
Details: top dose inferred
Description: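 Human cancer cell lines in 384-well plates, medium with 10% serum, drug for 72 h over a 256-fold dose range (nine 2-fold or five 4-fold steps up to the top dose). Adherent lines were fixed and stained with the nucleic acid dye Syto60, suspension lines read with resazurin; signal relative to control wells, capped at 0 and 100%. One two-parameter sigmoid per drug and line, fitted in a mixed model over all curves with the slope shared within a line.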

Cell Line | AUC | IC50 [nM]
CAL-62 (thyroid, adherent, top dose 0.128 µM) | 0.899 | > 128
CAL-72 (osteosarcoma, adherent, top dose 0.128 µM) | 0.984 | > 128
CAL-78 (chondrosarcoma, adherent, top dose 0.128 µM) | 0.985 | > 128
CAL-85-1 (breast, adherent, top dose 0.128 µM) | 0.7 | 34.6
CAL-120 (breast, adherent, top dose 0.128 µM) | 0.64 | 21.9
CAL-148 (breast, suspension, top dose 0.128 µM) | 0.821 | 67
CAMA-1 (breast, adherent, top dose 0.128 µM) | 0.777 | 65.4
CAPAN-1 (pancreas, adherent, top dose 0.128 µM) | 0.651 | 22
CAS-1 (glioma, adherent, top dose 0.128 µM) | 0.686 | 32.3
CCF-STTG1 (glioma, adherent, top dose 0.128 µM) | 0.49 | 7.5
CCK-81 (large intestine, adherent, top dose 1.024 µM) | 0.406 | 35.9
CCRF-CEM (lymphoblastic leukaemia, suspension, top dose 0.128 µM) | 0.433 | 5.41
CESS (acute myeloid leukaemia, suspension, top dose 0.128 µM) | 0.323 | 2.79
CFPAC-1 (pancreas, adherent, top dose 0.128 µM) | 0.846 | 114
CGTH-W-1 (thyroid, adherent, top dose 0.128 µM) | 0.55 | 10.9
CHL-1 (melanoma, adherent, top dose 0.128 µM) | 0.52 | 9.03
CHP-126 (neuroblastoma, suspension, top dose 0.128 µM) | 0.911 | > 128
CHP-134 (neuroblastoma, suspension, top dose 0.128 µM) | 0.86 | > 128
CHP-212 (neuroblastoma, adherent, top dose 0.128 µM) | 0.904 | > 128

Cell Line | AUC | IC50 [nM]
CHSA0011 (chondrosarcoma, adherent, top dose 0.128 µM) | 0.865 | > 128
CHSA0108 (chondrosarcoma, adherent, top dose 0.128 µM) | 0.934 | > 128
CHSA8926 (chondrosarcoma, adherent, top dose 0.128 µM) | 0.934 | > 128
CL-11 (large intestine, adherent, top dose 0.128 µM) | 0.965 | > 128
CMK (acute myeloid leukaemia, suspension, top dose 0.128 µM) | 0.342 | 3.14
COLO-205 (large intestine, suspension, top dose 0.128 µM) | 0.781 | 52.4
COLO-320-HSR (large intestine, suspension, top dose 0.128 µM) | 0.834 | 68.3
COLO-668 (small cell lung carcinoma, adherent, top dose 0.128 µM) | 0.701 | 29.4
COLO-678 (large intestine, semi-adherent, top dose 0.128 µM) | 0.948 | > 128
COLO-679 (melanoma, adherent, top dose 0.128 µM) | 0.845 | 109
COLO-680N (oesophagus, adherent, top dose 0.128 µM) | 0.868 | > 128
COLO-684 (endometrium, suspension, top dose 0.128 µM) | 0.356 | 3.03
COLO-783 (melanoma, adherent, top dose 0.128 µM) | 0.964 | > 128
COLO-792 (melanoma, adherent, top dose 0.128 µM) | 0.618 | 16.9
COLO-800 (melanoma, adherent, top dose 0.128 µM) | 0.639 | 19.2
COLO-824 (breast, adherent, top dose 0.128 µM) | 0.89 | > 128
COLO-829 (melanoma, adherent, top dose 0.128 µM) | 0.69 | 35.4
COR-L23 (large cell lung carcinoma, adherent, top dose 0.128 µM) | 0.548 | 10.7
COR-L88 (small cell lung carcinoma, adherent, top dose 0.128 µM) | 0.9 | > 128

Cell Line | AUC | IC50 [nM]
COR-L95 (small cell lung carcinoma, adherent, top dose 0.128 µM) | 0.843 | 112
COR-L105 (lung adenocarcinoma, adherent, top dose 0.128 µM) | 0.573 | 13.2
COR-L279 (small cell lung carcinoma, suspension, top dose 0.128 µM) | 0.489 | 7.51
COR-L303 (small cell lung carcinoma, suspension, top dose 0.128 µM) | 0.552 | 11
COR-L311 (small cell lung carcinoma, suspension, top dose 0.128 µM) | 0.421 | 4.78
COR-L321 (lung, suspension, top dose 0.128 µM) | 0.774 | 50.1
CP50-MEL-B (melanoma, adherent, top dose 0.128 µM) | 0.854 | 99.5
CP66-MEL (melanoma, adherent, top dose 0.128 µM) | 0.898 | > 128
CPC-N (small cell lung carcinoma, suspension, top dose 0.128 µM) | 0.765 | 51.2
CS1 (bone, adherent, top dose 0.128 µM) | 0.709 | 33.6
CTB-1 (B-cell lymphoma, suspension, top dose 0.128 µM) | 0.614 | 18.4
CTV-1 (acute myeloid leukaemia, suspension, top dose 1.024 µM) | 0.614 | 123
CW-2 (large intestine, adherent, top dose 1.024 µM) | 0.894 | > 1020
Ca9-22 (head and neck, adherent, top dose 0.128 µM) | 0.774 | 46.5
Ca-Ski (cervix, adherent, top dose 0.128 µM) | 0.398 | 4.07
CaR-1 (large intestine, adherent, top dose 0.128 µM) | 0.837 | > 128
Calu-3 (lung adenocarcinoma, adherent, top dose 0.128 µM) | 0.465 | 6.25
Calu-6 (lung adenocarcinoma, adherent, top dose 1.024 µM) | 0.719 | 296
Caov-3 (ovary, adherent, top dose 0.128 µM) | 0.828 | 66.6
